# In PubChem BioAssay (Tox21):
# Inconclusive results, whose numbers are uncertain, are shown with a selection of clear calls. For some assays here: No potency is given beside an inconclusive call; the fits are too rough. The source made the active and inactive calls. Unless noted, calls follow the shape of the dose curve; as a rule, active = well fitted curve in the direction sought with a large enough effect in the repeat runs; inconclusive = weak or mixed curves; inactive = no such curve, though single readings can be large; an effect the other way counts as inactive or inconclusive.
# Assays:
# [1] = qHTS assay to identify small molecule antagonists of the sonic hedgehog signaling (Shh) pathway (AID 1259369; calls by dose curve; also: nearly all actives have a fitted effect of over 45% in size; also: potency is read from the fitted curve at half-maximal effect)
# In short: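 For antagonist detection, the reporter line received test compounds together with conditioned medium, incubated 24hr at 37 C, 5% CO2, then luminescence was recorded following 30min room-temperature luciferase reagent incubation.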
# [2] = biological target: Estrogen receptor (Homo sapiens) (UniProt P03372); assay: qHTS assay to identify small molecule antagonists of the estrogen receptor alpha (ER-alpha) signaling pathway using the BG1 cell line in the presence of 0.1 nM 17-beta-estradiol (AID 1259244); also: nearly all actives have a fitted effect of over 50% in size; also: potency is read from the fitted curve at half-maximal effect
# In short: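 Estradiol at 0.1 nM (final) stimulates the endogenous ER-alpha of VM7Luc4E2 cells carrying an ERE-driven luciferase; compounds are co-incubated 22 h at 37C and luciferase output quantified by luminescence.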
# [3] = qHTS assay to identify small molecule agonists of the sonic hedgehog signaling (Shh) pathway - cell viability counter screen (AID 1259366); also: potency is read from the fitted curve at half-maximal effect; nearly all actives have a fitted effect of over 50% in size
# In short: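 CellTiter-Fluor fluorescence read-out, 1 hr at 37C, added after 23hr compound exposure. Cells: 3T3 Gli1-Luc, an NIH/3T3 clone with stably integrated Gli1-Luc reporter, plated 4hr before compound.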
# [4] = qHTS assay to identify small molecule antagonists of the sonic hedgehog signaling (Shh) pathway - cell viability counter screen (AID 1259367); also: potency is read from the fitted curve at half-maximal effect; nearly all actives have a fitted effect of over 55% in size
# In short: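 Cells: 3T3 Gli1-Luc, 2,000/well, 4 hr pre-incubation. Compounds in DMSO, then conditioned medium. Incubation 24 hr, 37C, 5% CO2. CellTiter-Fluor at 23 hr, 1 hr, fluorescence.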
# [5] = qHTS assay to identify small molecule agonists of the sonic hedgehog signaling (Shh) pathway (AID 1259368; calls by dose curve; also: potency is read from the fitted curve at half-maximal effect; nearly all actives have a fitted effect of over 15% in size)
# In short: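 A Gli1 transcriptional response element controlled firefly luciferase in 3T3Gli1-Luc cells. Compounds and a positive control were added 4 hr after plating, and cells were incubated a further 24 hr at 37 C before luminescence detection.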
# [6] = biological target: Estrogen receptor beta (Homo sapiens) (UniProt Q92731); assay: qHTS assay to identify small molecule antagonists of the estrogen receptor beta (ER-beta) signaling pathway (AID 1259378; active = well fitted inhibition curve with a large enough effect in the signal ratio in the repeat runs, not every such curve was filed as active; inconclusive = weak or mixed curves, or effect the other way; inactive = no such curve, though single readings can be large or run the other way; the % refers to the signal ratio; also: potency is read from the fitted curve at half-maximal effect); conditions: ER-beta-UAS-bla HEK293T, beta-lactamase FRET ratio, 16 h; series mostly up to 92.4 µM
# In short: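 Antagonist mode: compounds added to beta-lactamase reporter HEK293T ER-beta-UAS cells stimulated with E2 (1nM final), 16 hr at 37C. LiveBLAzer B/G FRET substrate, 2 hours room temperature, fluorescence read-out.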
# [7] = qHTS assay to identify small molecule agonists of the androgen receptor (AR) signaling pathway in the presence of an antagonist - cell viability counter screen (AID 1259379); also: potency is read from the fitted curve at half-maximal effect; nearly all actives have a fitted effect of over 25% in size
# In short: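 Seed MDA-kb2 at 3,000 cells/well; incubate 5 hr, 37C, 0% CO2. Add nilutamide to 3.0uM final, then pin compounds at 15 concentrations. Incubate 16 hr. Add CellTiter-Fluor at 15 hr, read fluorescence after 1 hr.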
# [8] = qHTS assay to identify small molecule phospholipidosis (PLD) inducers (AID 1259344; active = well fitted curve in the direction sought with a large enough effect; inconclusive = small, poorly fitted or top-dose-only effect, or another doubt; inactive = no such curve, though single readings can be large; an effect the other way counts as inactive or inconclusive)
# In short: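 Phospholipidosis is scored by imaging LipidTOX-stained pits in HepG2 cells exposed to compound for 24 h at 37 C; pit counts and integrated intensities per well and per cell serve as outputs.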
# Tags tell the direction and shape of the fitted curve or compound fluorescence and quenching.
# Sequence of UniProt Q92731 (Q92731 whole entry, looked up): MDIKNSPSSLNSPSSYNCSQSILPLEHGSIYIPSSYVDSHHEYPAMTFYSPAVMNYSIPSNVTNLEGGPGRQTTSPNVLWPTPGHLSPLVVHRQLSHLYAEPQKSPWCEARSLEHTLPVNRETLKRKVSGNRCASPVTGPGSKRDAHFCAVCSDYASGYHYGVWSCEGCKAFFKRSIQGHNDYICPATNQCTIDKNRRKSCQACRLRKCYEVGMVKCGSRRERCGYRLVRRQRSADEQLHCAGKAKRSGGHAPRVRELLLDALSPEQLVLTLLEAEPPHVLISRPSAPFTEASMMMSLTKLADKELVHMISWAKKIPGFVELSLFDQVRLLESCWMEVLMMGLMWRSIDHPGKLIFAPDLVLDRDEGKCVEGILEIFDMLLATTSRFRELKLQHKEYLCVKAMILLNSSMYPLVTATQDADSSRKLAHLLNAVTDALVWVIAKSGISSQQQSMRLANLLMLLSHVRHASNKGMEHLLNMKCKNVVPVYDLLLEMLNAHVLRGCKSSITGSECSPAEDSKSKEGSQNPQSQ
# Sequence of UniProt P03372 (P03372 whole entry, looked up): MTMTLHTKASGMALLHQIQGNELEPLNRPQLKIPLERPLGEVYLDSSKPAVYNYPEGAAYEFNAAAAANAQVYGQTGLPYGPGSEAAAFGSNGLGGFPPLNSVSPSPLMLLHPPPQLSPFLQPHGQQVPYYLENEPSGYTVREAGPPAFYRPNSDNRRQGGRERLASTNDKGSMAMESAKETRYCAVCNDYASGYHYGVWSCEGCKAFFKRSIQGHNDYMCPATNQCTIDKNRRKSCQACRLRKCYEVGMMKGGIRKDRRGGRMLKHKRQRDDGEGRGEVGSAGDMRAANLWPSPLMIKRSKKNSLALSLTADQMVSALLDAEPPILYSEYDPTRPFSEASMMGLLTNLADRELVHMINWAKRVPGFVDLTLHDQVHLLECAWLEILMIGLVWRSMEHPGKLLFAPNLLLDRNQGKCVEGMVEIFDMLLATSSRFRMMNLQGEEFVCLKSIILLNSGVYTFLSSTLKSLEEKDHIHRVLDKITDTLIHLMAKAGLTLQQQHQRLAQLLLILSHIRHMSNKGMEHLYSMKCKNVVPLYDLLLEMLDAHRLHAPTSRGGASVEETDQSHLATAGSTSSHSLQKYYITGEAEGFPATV
smiles,measurement,setting,value
O=C(O)c1ccc2[nH]cc(CCCCN3CC=C(c4ccccc4)CC3)c2c1,Potency,[1],"inconclusive [inhibitor, single point]"
COP(=O)(OC)OC(Br)C(Cl)(Cl)Br (centres undefined),Potency,[2],"inconclusive [inhibitor, single point] and inactive"
same,Potency,[3],inconclusive [cytotoxic]
same,Potency,[4],"inconclusive [cytotoxic, partial curve]"
same,Potency,[5],"inconclusive [activator, single point]"
same,Potency,[1],"inconclusive [inhibitor, full curve]"
same,Potency,[6],inconclusive [inhibitor]
same,Potency,[7],inconclusive [cytotoxic]
Clc1ccccc1Cl,Potency,[8],inactive
O=[N+]([O-])c1ccccc1,Potency,[2],inactive
same,Potency,[6],inactive
CCCCCCCCCCn1cc[n+](C)c1,Potency,[3],"inconclusive [rising, full curve]"
same,Potency,[4],"inconclusive [cytotoxic, partial curve, poor fit]"
O=C(O)c1cc(I)cc(I)c1I,Potency,[1],inactive
